Assay results reported in PubChem BioAssay AID2101 (National Center for Advancing Translational Sciences (NCATS), 2009).
The whole screen tested about 330,000 compounds, of which about 300 (0.091%) were called active. The inconclusive results got no clear call from the source; some entries with a clear call stand among them for comparison. Calls follow the shape of the dose curve; as a rule, active = well fitted inhibition curve with a large enough effect; inconclusive = small, poorly fitted or top-dose-only effect, or effect the other way, or another doubt; inactive = no such curve, though single readings can be large or run the other way. No potency is given beside an inconclusive call; the fits are too rough.

These compounds were tested against Lysosomal acid glucosylceramidase (Homo sapiens) (UniProt P04062) (assay: qHTS Assay for Inhibitors and Activators of N370S glucocerebrosidase as a Potential Chaperone Treatment of Gaucher Disease). Settings: N370S GC spleen homogenate, 4MU-glucoside fluorescence; activity change, negative = inhibition: at 59.4 µM (top of the series) unless noted.
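For activity change, negative = inhibition in this document: 0% = full enzyme activity and -100% = no enzyme basal.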
Potency is read from the fitted curve at half-maximal effect.

Question: Which Potency does the source give for `c1ccc2c(c1)ncc1cccn12` here?
Answer: Its Potency is inconclusive [activator, partial curve].

Question: `Cc1cccc2cc(C#N)c(SCC(=O)N3CCC(C)CC3)nc12` was tested. Which Potency did it give?
Answer: Its Potency is inconclusive [activator, single point].

Question: With `COc1ccc(CCNC(=O)c2cc(-c3ccccc3)c(N3CCOCC3)s2)c(OC)c1OC` as the compound, how does the Potency read?
Answer: The Potency was inconclusive [activator, partial curve].

Question: For `C#CCOCCOCCOCCNc1nc(N2CCN(C(=O)CCCCCCCCCCNC(=O)[C@H](CCCCN)n3cc(CCO)nn3)CC2)nc(N2CCN(C(=O)CCCCCCCCCCNC(=O)[C@H](CCCCN)n3cc(CCCC(=O)O)nn3)CC2)n1`, which Potency is on record?
Answer: The Potency was inconclusive [inhibitor, single point].

Question: With `O=C(COc1ccc(Cl)cc1)N(Cc1ccccc1)c1ccccn1` as the compound, how does the Potency read?
Answer: Its Potency is inconclusive [activator, single point].

Question: With `O=C(NCc1ccccc1Cl)c1ccccc1Oc1ccccc1` as the compound, how does the Potency read?
Answer: The Potency was inconclusive [activator, single point].

Question: How did the Potency turn out when `CCc1ccccc1NC(=O)CN1CCN(C(=O)C(C)NC(=O)c2ccc(Cl)cc2)CC1` (stereo unspecified) was run?
Answer: Its Potency is “inactive”.

Question: How did the Potency turn out when `Cc1ccc(-c2cc(C(=O)N3CCCC3)c3ccccc3n2)s1` was run?
Answer: Its Potency is inconclusive [activator, partial curve].

Question: For `CCc1cc(=O)n2c([nH]c3ccccc32)c1C#N`, which Potency is on record?
Answer: Its Potency is inconclusive [activator, partial curve].

Question: With `O=C(NCCN1CCCC1)c1ccc2c(=O)n(CCc3ccccc3)c(=O)[nH]c2c1` as the compound, how does the Potency read?
Answer: Its Potency is inconclusive [activator, full curve, poor fit].

Question: How did the Potency turn out when `Cc1cc2cc(CN(Cc3ccc4c(c3)OCO4)C(=O)c3ccco3)c(=O)[nH]c2cc1C` was run?
Answer: Its Potency is inconclusive [activator, partial curve].

Question: `Cc1cc2c(C)cc(=O)oc2c2c1NCCC2` was tested. Which Potency did it give?
Answer: Its Potency is inconclusive [activator, partial curve].

Question: Which Potency does the source give for `COc1ccc(-n2nc(C(=O)NCC(=O)Nc3cc(OC)c(OC)c(OC)c3)c3ccccc3c2=O)cc1` here?
Answer: Its Potency is inconclusive [inhibitor, partial curve].

Question: How did the Potency turn out when `O=C(NC(=S)Nc1ccc(S(=O)(=O)Nc2nccs2)cc1)c1ccccc1` was run?
Answer: The Potency was “inactive”.

Question: Which Potency does the source give for `O=C(COC(=O)C1CCN(c2ccc(C(F)(F)F)cn2)CC1)NCc1cccc(Cl)c1` here?
Answer: Its Potency is inconclusive [activator, single point].

Question: With `Cc1nn(C)c(C(=O)N2CCOCC2)c1Cl` as the compound, how does the Potency read?
Answer: The Potency was inconclusive [inhibitor, partial curve, poor fit].

Question: Which activity change, negative = inhibition does the source give for `CCOC(=O)c1c(NC(=O)C2CCCN(S(=O)(=O)c3ccccc3)C2)sc2c1CCCC2` (stereo unspecified) here?
Answer: Its activity change, negative = inhibition is inconclusive: 40.4% [activator].

Question: With `CCCc1nnc(NC(=S)Nc2ccccc2)s1` as the compound, how does the Potency read?
Answer: The Potency was “inactive”.

Question: With `NC(N)=Nc1nc(-c2ccccc2)c2cc(F)ccc2n1` as the compound, how does the Potency read?
Answer: Its Potency is inconclusive [inhibitor, partial curve].

Question: `Cn1c(=O)c2c(ncn2CC(=O)OCC(=O)NCc2ccccc2Cl)n(C)c1=O` was tested. Which Potency did it give?
Answer: Its Potency is inconclusive [inhibitor, single point].

Question: Which Potency does the source give for `COC(=O)N/N=C/c1ccc(Oc2ccccc2)cc1` here?
Answer: The Potency was “inactive”.

Question: How did the Potency turn out when `c1ccc(Cc2ccc(OCCCNC3CCCC3)cc2)cc1` was run?
Answer: Its Potency is inconclusive [inhibitor, single point].

Question: Which Potency does the source give for `CC(=O)Nc1nc2n(n1)C(c1ccc(Cl)cc1)C=C(C)N2` (stereo unspecified) here?
Answer: The Potency was inconclusive [activator, single point].

Question: `CCN(/C=N/c1sc2c(c1C#N)CCCCC2)CC` was tested. Which Potency did it give?
Answer: Its Potency is inconclusive [activator, partial curve].

Question: Which Potency does the source give for `CCN1CCc2c(sc(NC(=O)Cc3ccccc3)c2C(N)=O)C1` here?
Answer: Its Potency is “inactive”.

Question: Which Potency does the source give for `O=C(O)C=C1CCN(c2ncc(C(F)(F)F)cc2Cl)CC1` here?
Answer: Its Potency is “inactive”.

Question: For `O=S(=O)(c1ccc(Cl)cc1)N1CCN(c2nc(-c3cccs3)nc3ccccc23)CC1`, which Potency is on record?
Answer: Its Potency is active: 0.447 µM.

Question: How did the Potency turn out when `CC1CCN(C(=O)c2cc3c(ccc4ccccc43)o2)CC1` was run?
Answer: The Potency was inconclusive [activator, single point].

Question: How did the Potency turn out when `CCN(CC)CC(=O)Nc1c2c(nc3ccccc13)N(C)CC2` was run?
Answer: The Potency was inconclusive [activator, single point].

Question: For `CCOC(=O)CSc1nc(N)c2c3c(sc2n1)CCCC3`, which Potency is on record?
Answer: Its Potency is inconclusive [activator, partial curve].

Question: How did the Potency turn out when `CC(=O)Nc1ccc(OC[C@@H](O)CNC(C)C)cc1` was run?
Answer: Its Potency is inconclusive [inhibitor, partial curve, poor fit].

Question: For `O=C(CN(Cc1ccccc1)S(=O)(=O)c1ccccc1)N/N=C/c1ccccc1[N+](=O)[O-]`, which Potency is on record?
Answer: Its Potency is inconclusive [activator, single point].

Question: For `CCOCCCN(C(=O)c1snc(C(N)=O)c1N)C(C(=O)NCCC(C)C)c1ccc(F)cc1` (stereo unspecified), which Potency is on record?
Answer: The Potency was inconclusive [activator, single point].

Question: How did the Potency turn out when `Cc1ccc2c(c1)Cc1nc3ccccc3nc1-2` was run?
Answer: The Potency was inconclusive [activator, single point].

Question: `C=CCc1ccc(OCC(O)COc2ccc(CC=C)cc2OC)c(OC)c1` was tested. Which Potency did it give?
Answer: Its Potency is inconclusive [inhibitor, single point].

Question: How did the Potency turn out when `CCCN1Cc2cccc(C(=O)Nc3ccc(CN4CCCC4)cc3)c2C1=O` was run?
Answer: The Potency was inconclusive [inhibitor, full curve, poor fit].

Question: With `OC(c1ccccn1)(c1ccccn1)c1ccccn1` as the compound, how does the Potency read?
Answer: Its Potency is inconclusive [inhibitor, single point].

Question: Which Potency does the source give for `CC(=O)CCc1oc2ccc(C)cc2c1-c1ccc(C)o1` here?
Answer: Its Potency is inconclusive [inhibitor, partial curve].

Question: `C/C(=N\NC(=O)c1ccc2nc[nH]c2c1)c1ccc([N+](=O)[O-])cc1` was tested. Which Potency did it give?
Answer: The Potency was inconclusive [inhibitor, partial curve].

Question: With `COc1ccc(C(=O)NC2CCN(CC(=O)Nc3c(C)cccc3C)CC2)cc1OC` as the compound, how does the Potency read?
Answer: Its Potency is inconclusive [inhibitor, partial curve].

Question: With `CCN(C1=NS(=O)(=O)c2ccccc21)N(CC)S(=O)(=O)c1ccc(C)cc1` as the compound, how does the Potency read?
Answer: Its Potency is inconclusive [activator, partial curve].

Question: With `CC1CCCCN1S(=O)(=O)c1ccc(C(=O)N(CCCN(C)C)c2nc3cc4c(cc3s2)OCO4)cc1` (stereo unspecified) as the compound, how does the Potency read?
Answer: The Potency was inconclusive [inhibitor, single point].

Question: For `C[C@@]12C=Cc3occc3C1CC[C@@]13C[C@@H](CCC12)[C@@](O)(CO)C3` (stereo partly specified), which Potency is on record?
Answer: Its Potency is “inactive”.

Question: For `O=C(Nc1cccc(C(=O)O)c1)Nc1cccc2ccccc12`, which Potency is on record?
Answer: The Potency was inconclusive [inhibitor, partial curve].

Question: For `Cc1cc(C)c(C#N)c(SCC2COc3ccccc3O2)n1` (stereo unspecified), which Potency is on record?
Answer: The Potency was inconclusive [activator, partial curve].

Question: With `COCCNc1oc(/C=C/c2ccccc2)nc1C#N` as the compound, how does the Potency read?
Answer: The Potency was inconclusive [activator, partial curve].

Question: `Cc1c(C(=O)Nc2ccc3oc(-c4cccnc4)nc3c2)oc2ccccc12` was tested. Which Potency did it give?
Answer: The Potency was “inactive”.

Question: Which Potency does the source give for `COc1ccc(/C=C/c2c(-c3ccc(OC)cc3)oc3cccnc23)cc1` here?
Answer: The Potency was inconclusive [activator, partial curve].

Question: For `CN(C)c1oc(/C=C/c2ccccc2)nc1C#N`, which Potency is on record?
Answer: Its Potency is inconclusive [activator, partial curve].

Question: For `CC(=O)c1ccc(OCc2cc(C(=O)N(C)Cc3cc(C)no3)no2)cc1`, which Potency is on record?
Answer: The Potency was “inactive”.

Question: `COc1cccc(NC(=O)COC(=O)CCCC2=NS(=O)(=O)c3ccccc3N2)c1` was tested. Which Potency did it give?
Answer: The Potency was inconclusive [inhibitor, partial curve, poor fit].

Question: With `Cc1cc2cc(C(c3nnnn3C(C)(C)C)N(Cc3ccco3)CC3CCCO3)c(=O)[nH]c2cc1C` (stereo unspecified) as the compound, how does the Potency read?
Answer: Its Potency is inconclusive [activator, partial curve].

Question: Which activity change, negative = inhibition does the source give for `Cc1c(C#N)c(N)nc(Cl)c1C#N` here?
Answer: Its activity change, negative = inhibition is inconclusive: 31.1% [activator].

Question: With `CCOC(=O)N1CCN(c2nc(-c3cccs3)nc3ccccc23)CC1` as the compound, how does the Potency read?
Answer: Its Potency is inconclusive [inhibitor, partial curve].

Question: Which Potency does the source give for `COCCn1c(=O)[nH]c(=O)c2c1nc(-c1ccc(-c3ccc(Cl)cc3[N+](=O)[O-])o1)n2Cc1ccccc1` here?
Answer: Its Potency is inconclusive [activator, partial curve].

Question: `CCCCOc1ccc(C(=O)NCC(=O)N(C)CC(=O)Nc2ccc(N3CCOCC3)cc2)cc1` was tested. Which Potency did it give?
Answer: The Potency was inconclusive [activator, single point].

Question: With `O=C(Nc1ccccc1N1CCOCC1)c1ccc(S(=O)(=O)NCc2ccco2)cc1` as the compound, how does the Potency read?
Answer: The Potency was “inactive”.

Question: Which Potency does the source give for `O=C(Nc1ccccc1)N1N=C(c2cccs2)CC1c1cccs1` (stereo unspecified) here?
Answer: Its Potency is inconclusive [activator, full curve].

Question: Which Potency does the source give for `CCNc1nc(Oc2c(Cl)cccc2Cl)cc(C(F)(F)F)n1` here?
Answer: The Potency was “inactive”.

Question: Which Potency does the source give for `CCc1c(C)c2cc(Cl)c(O)c(CN(C)C)c2oc1=O` here?
Answer: The Potency was inconclusive [activator, partial curve].

Question: How did the Potency turn out when `CCOC(=O)c1cccc(NC(=O)c2ccc(NC(=O)c3ccco3)cc2)c1` was run?
Answer: Its Potency is inconclusive [activator, full curve, poor fit].

Question: `O=C(N/N=C/c1ccc2c(c1)OCO2)c1ccc2c(c1)OCO2` was tested. Which Potency did it give?
Answer: The Potency was “inactive”.

Question: With `CC(C)C(=O)Nc1cccc(C(=O)N2CCCCC2C)c1` (stereo unspecified) as the compound, how does the Potency read?
Answer: The Potency was inconclusive [inhibitor, single point].

Question: How did the Potency turn out when `CNc1ncnc2c1ncn2[C@@H]1O[C@H](CO)[C@H](O)[C@H]1O` was run?
Answer: Its Potency is “inactive”.

Question: How did the Potency turn out when `COc1ccc(C2=Nn3c(nnc3-c3ccc(OC)cc3OC)SC2)cc1` was run?
Answer: The Potency was “inactive”.

Question: For `N/C(Cc1ccc([N+](=O)[O-])cc1)=N\OC(=O)Cc1ccc(Cl)cc1`, which Potency is on record?
Answer: Its Potency is “inactive”.
